The values below come from the supplement of paper PMC4604168 (melanoma cell lines).

Some of the results follow. Single values are uncertain, as repeats are few or missing.

Holding throughout (assay): cell count relative to DMSO control; melanoma cells; higher = more viable cells
Common to all, as to details: library dose: low library concentration; 72 h

Assay [1] relates to WM115.
The test system of assay [2] is WM1716.
Assay [3] relates to WM1745.
Assay [4] relates to WM3526.
Assay [5] deals with WM3619.
In assay [6] the test system is WM451Lu.
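Note: cell number obtained by counting DAPI-stained nuclei in high-throughput microscope images with image analysis software, screen run in 1,536-well plates.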

On to `COc1ccc(C2=N[C@@H](c3ccc(Cl)cc3)[C@@H](c3ccc(Cl)cc3)N2C(=O)N2CCNC(=O)C2)c(OC(C)C)c1` [Nutlin-3] + O=C(O)[C@@H]1[O][Sb](=[O])([O][Sb]2(=[O])[O][C@H]([C@H](O)CO)[C@H](O)[C@H](C(=O)O)[O]2)[O][C@H]([C@H](O)CO)[C@@H]1O [stibogluconate] (first compound 0.1 µM, partner dose 2 µM), for which the cell count was found to be 95% in assay [1]; 87.2% in assay [2]; 94.9% in assay [3]; 117% in assay [4]; 81.1% in assay [5]; 86.7% in assay [6].

On to `Cc1cc(Nc2cc(N3CCN(C)CC3)nc(/C=C/c3ccccc3)n2)n[nH]1` + CO[C@H]1C[C@@H]2CC[C@@H](C)[C@@](O)(O2)C(=O)C(=O)N2CCCC[C@H]2C(=O)O[C@H]([C@H](C)C[C@@H]2CC[C@@H](OCCO)[C@H](OC)C2)CC(=O)[C@H](C)/C=C(\C)[C@@H](O)[C@@H](OC)C(=O)[C@H](C)C[C@H](C)/C=C/C=C/C=C/1C [everolimus] (first compound 0.04 µM, partner dose 0.02 µM), for which the cell count came out at 79.1% in assay [1]; 87.1% in assay [2]; 97.5% in assay [3]; 67.1% in assay [4]; 77.5% in assay [5]; 77.7% in assay [6].

As to `CC(C)C[C@H](NC(=O)[C@H](Cc1ccccc1)NC(=O)c1cnccn1)B(O)O` [Bortezomib] + C=CCNC1=C2C[C@@H](C)C[C@H](OC)[C@H](O)[C@@H](C)/C=C(\C)[C@H](OC(N)=O)[C@@H](OC)/C=C\C=C(/C)C(=O)NC(=CC1=O)C2=O [Tanespimycin] (first compound 0.001 µM, partner dose 0.002 µM), the cell count came to 85.5% in assay [1]; 27.7% in assay [2]; 55.2% in assay [3]; 72.9% in assay [4]; 18.9% in assay [5]; 81.4% in assay [6].
